# Source: the supplement of paper PMC10369915
# Some of the results follow. Cut-off read from the data, not from the text of the source: active = 3.2 or more and inactive = the rest. Most of these values are background signal.
# B1: ANTXR2_Y381 (peptide)
# chain: VDASYYGGRGV
# B2: ANTXR2_Y381_YF (peptide)
# chain: VDASFYGGRGV
# B3: ANXA1_Y335_G333E (peptide)
# chain: ETKEDYEKILV
# B4: ANXA3_Y295 (peptide)
# chain: EFKKHYGYSLY
# B5: AP1S3_Y87 (peptide)
# chain: EIVHRYVELLD
# B6: AP1S3_Y87_I83T (peptide)
# chain: ETVHRYVELLD
# B7: APBA1_Y183 (peptide)
# chain: GEDEPYSEPYA
# B8: APBA1_Y183_S184A (peptide)
# chain: GEDEPYAEPYA
# B9: APBA1_Y187 (peptide)
# chain: PYSEPYADYGG
# B10: APBA1_Y187_S184A (peptide)
# chain: PYAEPYADYGG
# B11: APBB1IP_Y340 (peptide)
# chain: RASGIYYVPKG
# B12: APBB1IP_Y340_R335W_YF (peptide)
# chain: WASGIYFVPKG
# B13: APC_Y1183_A1184P (peptide)
# chain: DYSLKYPTDIP
# B14: APC_Y1183_A1184P_YF (peptide)
# chain: DFSLKYPTDIP
# B15: APC_Y2838 (peptide)
# chain: RHSGSYLVTSV
# B16: APC_Y2838_L2839F (peptide)
# chain: RHSGSYFVTSV
# B17: APC_Y96 (peptide)
# chain: MSLRSYGSREG
# B18: API5_Y497 (peptide)
# chain: LGNFNYEQRGA
# B19: API5_Y497_G493S (peptide)
# chain: LSNFNYEQRGA
# B20: APOA1_Y190 (peptide)
# chain: THLAPYSDELR
# B21: APOA1_Y190_P189R (peptide)
# chain: THLARYSDELR
# B22: APOA1_Y53 (peptide)
# chain: DSGRDYVSQFE
# B23: APOA4_Y310_R305C (peptide)
# chain: CRVEPYGENFN
# B24: APOB_Y276_K273N (peptide)
# chain: SYNNKYGMVAQ
# B25: APOB_Y740_T741N (peptide)
# chain: VDHFGYNKDDK
# B26: APTX_Y209_K211Q (peptide)
# chain: VIKDKYPQARY
# B27: APTX_Y209_K211Q_YF (peptide)
# chain: VIKDKYPQARF
# B28: APTX_Y209_R213H (peptide)
# chain: VIKDKYPKAHY
# B29: APTX_Y214_H215R_YF (peptide)
# chain: FPKARYRWLVL
# B30: APTX_Y214_K211Q_YF (peptide)
# chain: FPQARYHWLVL
# B31: AR_Y269 (peptide)
# chain: RGDCMYAPLLG
# B32: AR_Y269_P271S (peptide)
# chain: RGDCMYASLLG
# B33: AR_Y395 (peptide)
# chain: ENPLDYGSAWA
# B34: AR_Y395_P392S (peptide)
# chain: ENSLDYGSAWA
# B35: AR_Y858_F857L (peptide)
# chain: CSRRLYQLTKL
# B36: AR_Y858_R856H (peptide)
# chain: CSRHFYQLTKL
# B37: AR_Y916_Q920R (peptide)
# chain: KVKPIYFHTRG
# Experiments:
# Assay in all cases: enrichment score (SH2-bound / input frequency) (ratio); bacterial display of known human phosphotyrosine sites (pTyr-Var adds point mutants) read by sequencing; higher = stronger binding; tyrosines were phosphorylated by kinases first
# Details in all cases: peptide library: pTyr-Var
# SHP2 C-SH2 domain E139D = molecular target: SHP2 C-SH2 domain E139D
# [1] = molecular target: SHP2 C-SH2 domain wild-type
# SHP2 N-SH2 domain L43F = molecular target: SHP2 N-SH2 domain L43F
# SHP2 N-SH2 domain T42A = molecular target: SHP2 N-SH2 domain T42A
# SHP2 N-SH2 domain T52S = molecular target: SHP2 N-SH2 domain T52S
# [2] = molecular target: SHP2 N-SH2 domain wild-type
# 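Note: displayed peptides selected on beads carrying the immobilized SH2 domain, with library peptides lacking any tyrosine serving as negative controls.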
Binder,enrichment score (SHP2 C-SH2 domain E139D),enrichment score [1],enrichment score (SHP2 N-SH2 domain L43F),enrichment score (SHP2 N-SH2 domain T42A),enrichment score (SHP2 N-SH2 domain T52S),enrichment score [2]
B1,inactive: 0.651,inactive: 0.596,inactive: 0.509,inactive: 0.533,inactive: 0.579,inactive: 0.657
B2,inactive: 0.926,inactive: 0.805,inactive: 0.788,inactive: 0.976,inactive: 0.638,inactive: 0.846
B3,inactive: 0.577,inactive: 0.971,inactive: 0.677,inactive: 0.582,inactive: 0.573,inactive: 0.738
B4,active: 3.65,active: 3.35,inactive: 3.01,inactive: 2.25,inactive: 2.47,inactive: 2.81
B5,inactive: 1.26,inactive: 1.28,inactive: 2.34,active: 4.5,inactive: 2.35,inactive: 1.21
B6,inactive: 0.93,inactive: 1.57,inactive: 2.13,active: 4.38,inactive: 2.3,inactive: 0.967
B7,inactive: 0.513,inactive: 0.426,inactive: 0.399,inactive: 0.459,inactive: 0.311,inactive: 0.501
B8,inactive: 0.651,inactive: 0.489,inactive: 0.312,inactive: 0.497,inactive: 0.372,inactive: 0.695
B9,inactive: 0.777,inactive: 0.433,inactive: 0.592,inactive: 0.537,inactive: 0.399,inactive: 0.379
B10,inactive: 0.761,inactive: 0.581,inactive: 0.679,inactive: 0.644,inactive: 0.657,inactive: 0.719
B11,inactive: 0.974,inactive: 0.96,inactive: 0.889,inactive: 0.918,inactive: 0.659,inactive: 0.631
B12,inactive: 2.19,inactive: 1.88,inactive: 1.76,inactive: 1.89,inactive: 2.15,inactive: 2.18
B13,inactive: 0.898,inactive: 1.04,inactive: 0.834,inactive: 0.819,inactive: 0.911,inactive: 0.936
B14,inactive: 1.07,inactive: 0.835,inactive: 1.03,inactive: 0.924,inactive: 1.08,inactive: 1.05
B15,inactive: 1.26,inactive: 1.04,inactive: 0.941,inactive: 0.951,inactive: 1.15,inactive: 1.04
B16,inactive: 0.994,inactive: 0.872,inactive: 0.824,inactive: 0.809,inactive: 0.756,inactive: 0.879
B17,inactive: 0.556,inactive: 0.536,inactive: 0.467,inactive: 0.463,inactive: 0.468,inactive: 0.465
B18,inactive: 0.668,inactive: 0.527,inactive: 0.545,inactive: 0.49,inactive: 0.518,inactive: 0.612
B19,inactive: 0.753,inactive: 0.575,inactive: 0.554,inactive: 0.674,inactive: 0.497,inactive: 0.546

Binder,enrichment score (SHP2 C-SH2 domain E139D),enrichment score [1],enrichment score (SHP2 N-SH2 domain L43F),enrichment score (SHP2 N-SH2 domain T42A),enrichment score (SHP2 N-SH2 domain T52S),enrichment score [2]
B20,inactive: 0.617,inactive: 0.59,inactive: 0.819,inactive: 0.675,inactive: 0.672,inactive: 0.874
B21,inactive: 0.611,inactive: 0.721,inactive: 0.734,inactive: 0.585,inactive: 0.799,inactive: 0.689
B22,inactive: 0.55,inactive: 0.577,inactive: 0.515,inactive: 0.599,inactive: 0.577,inactive: 0.62
B23,inactive: 0.863,inactive: 1.04,inactive: 0.735,inactive: 0.547,inactive: 0.922,inactive: 1.36
B24,inactive: 0.775,inactive: 0.69,inactive: 0.696,inactive: 0.456,inactive: 0.626,inactive: 0.537
B25,inactive: 0.724,inactive: 0.574,inactive: 0.746,inactive: 0.674,inactive: 0.502,inactive: 0.828
B26,inactive: 0.841,inactive: 0.944,inactive: 0.664,inactive: 0.627,inactive: 0.852,inactive: 0.885
B27,inactive: 0.867,inactive: 0.709,inactive: 0.899,inactive: 0.754,inactive: 0.673,inactive: 0.912
B28,inactive: 1.14,inactive: 1.22,inactive: 1.15,inactive: 1.04,inactive: 1.19,inactive: 1.11
B29,inactive: 0.448,inactive: 0.484,inactive: 0.452,inactive: 0.391,inactive: 0.467,inactive: 0.414
B30,inactive: 2.89,inactive: 2.74,inactive: 2.65,inactive: 2.47,inactive: 2.77,inactive: 2.96
B31,inactive: 1.07,inactive: 0.923,inactive: 1.02,inactive: 0.902,inactive: 0.997,inactive: 0.938
B32,inactive: 1.3,inactive: 1.73,inactive: 0.931,inactive: 1.37,inactive: 1.07,inactive: 1.12
B33,inactive: 0.705,inactive: 0.809,inactive: 0.875,inactive: 0.795,inactive: 0.938,inactive: 0.804
B34,inactive: 0.69,inactive: 0.516,inactive: 0.655,inactive: 0.478,inactive: 0.624,inactive: 0.697
B35,inactive: 0.451,inactive: 0.315,inactive: 0.313,inactive: 0.382,inactive: 0.358,inactive: 0.34
B36,inactive: 1.37,inactive: 1.31,inactive: 1.34,inactive: 1.22,inactive: 1.33,inactive: 1.32
B37,active: 4.43,active: 3.69,active: 4.02,active: 3.85,active: 3.93,active: 3.75
